Test results taken from paper PMC4336329 (PLoS ONE, 2015).
About 2,200 (0.71%) of roughly 310,000 compounds showed an effect of 50% or more. Effects have a minus sign here. The list shows a part of the results.

biological target: human ether-à-go-go-related gene (hERG) potassium channel (human, UniProt Q12809); assay: primary screen, population patch clamp on CHO cells stably expressing hERG
Sequence (Q12809 whole entry, looked up): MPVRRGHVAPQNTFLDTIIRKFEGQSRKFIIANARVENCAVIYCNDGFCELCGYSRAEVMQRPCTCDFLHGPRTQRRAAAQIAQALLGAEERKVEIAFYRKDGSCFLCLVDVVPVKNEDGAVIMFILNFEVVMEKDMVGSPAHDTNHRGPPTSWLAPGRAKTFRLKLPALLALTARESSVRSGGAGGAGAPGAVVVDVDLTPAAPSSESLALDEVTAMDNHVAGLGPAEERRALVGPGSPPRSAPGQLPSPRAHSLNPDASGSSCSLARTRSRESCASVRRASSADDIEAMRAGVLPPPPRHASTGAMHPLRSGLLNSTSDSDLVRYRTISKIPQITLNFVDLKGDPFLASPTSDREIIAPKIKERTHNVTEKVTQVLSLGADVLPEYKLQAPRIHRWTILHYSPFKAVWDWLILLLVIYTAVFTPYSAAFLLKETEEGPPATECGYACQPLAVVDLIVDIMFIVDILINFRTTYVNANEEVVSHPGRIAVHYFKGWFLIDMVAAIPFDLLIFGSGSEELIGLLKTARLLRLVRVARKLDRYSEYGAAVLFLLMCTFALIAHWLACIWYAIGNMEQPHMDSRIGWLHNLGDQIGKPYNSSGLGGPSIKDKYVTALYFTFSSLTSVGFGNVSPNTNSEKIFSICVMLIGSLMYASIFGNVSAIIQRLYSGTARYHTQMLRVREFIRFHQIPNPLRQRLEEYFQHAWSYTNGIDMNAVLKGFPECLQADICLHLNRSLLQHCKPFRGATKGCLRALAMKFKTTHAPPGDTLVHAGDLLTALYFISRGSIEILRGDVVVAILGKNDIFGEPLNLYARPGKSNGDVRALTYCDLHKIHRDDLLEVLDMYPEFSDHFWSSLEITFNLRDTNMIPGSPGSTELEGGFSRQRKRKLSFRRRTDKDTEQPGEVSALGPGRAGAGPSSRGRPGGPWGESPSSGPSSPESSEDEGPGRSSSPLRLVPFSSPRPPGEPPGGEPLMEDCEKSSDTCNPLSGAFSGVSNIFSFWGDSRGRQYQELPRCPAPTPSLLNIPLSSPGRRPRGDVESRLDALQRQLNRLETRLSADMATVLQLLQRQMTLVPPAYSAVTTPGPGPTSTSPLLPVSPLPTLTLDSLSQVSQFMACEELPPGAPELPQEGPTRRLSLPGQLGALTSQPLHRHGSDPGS

SMILES	hERG current change (%, negative = inhibition) at 1uM
CCc1ccc(NC(=O)CCc2nnc3ccc(N4CCCC4)nn23)cc1	22.2%
CC(=O)NC(C(=O)c1ccccc1)C(=O)c1ccccc1	7.64%
C/C(=N\NC(=O)C(C)Nc1cccc(Cl)c1)c1ccc([N+](=O)[O-])cc1 (centres unmarked)	-8.04%
CCn1c(=NC(=O)CCS(=O)(=O)c2ccccc2)sc2cccc(OC)c21	7.7%
COC(=O)c1cc(OC)c(OC)cc1NC(=O)C(C)c1ccc([N+](=O)[O-])cc1 (centres unmarked)	8.84%
O=S(=O)(Nc1ccccc1Cl)c1ccc2[nH]c(=S)oc2c1	12.8%
CCn1c(SCC(=O)N/N=C/C(C)=C/c2ccco2)nnc1-c1ccccc1	-18.7%
COc1ccc(/C=N/N2C(=O)CN(C(=O)c3ccccc3)C2c2ccc(OC)cc2)cc1 (centres unmarked)	10.2%
Cc1c(S(=O)(=O)NC(C)c2ccccc2)c(=O)n(C)c(=O)n1C (centres unmarked)	9.89%
CCN(CC)CCN(CC(=O)Nc1c(C)cc(C)cc1C)C(=O)c1ccccc1.O=C(O)/C=C/C(=O)O	3.87%
COc1ccc(-c2[nH]ncc2CNC(C)CCn2cccn2)c(F)c1 (centres unmarked)	11.2%
Cc1ccc(NC(=O)C2C3C=CC4(O3)C2C(=O)N(CCCN2CCCC(C)C2)C4C(=O)NC2CCCCC2)cc1 (centres unmarked)	14.1%
CCOc1cc(C(N)=O)cc(Cl)c1OCC	12.4%
COc1cc(C(=O)NCCC(=O)NCCc2ccc(Cl)cc2)cc(OC)c1OC	8.3%
O=C(O)COc1ccc(NC(=O)c2ccc3c(c2)C(=O)N(C2CCCCC2)C3=O)cc1	19.2%
CCOC(=O)C1(Cc2ccccc2)CCN(Cc2cn(CC(=O)OC)c3ccccc23)CC1	-34.7%
FC(F)(F)c1ccccc1C1=CC(c2ccccc2)n2ncnc2N1 (centres unmarked)	3.86%
O=C(NCCCN1CCOCC1)C(C(=O)c1ccccc1)n1ccccc1=O (centres unmarked)	13.2%
CC(C)CNC(=O)CN1C(=O)NC(Cc2c[nH]c3ccccc23)C1=O (centres unmarked)	7.76%
CC(OC(=O)C1CCN(c2ccc(C(F)(F)F)cn2)CC1)C(=O)c1ccccc1 (centres unmarked)	9.37%
COc1nc(OC)nc(N2CCC(C(=O)NCC3CCCCC3)CC2)n1	-16.3%
CC[n+]1ccc(C)c2cc(P(=O)(c3ccccc3)c3ccccc3)ccc21.[I-]	13.9%
CCCc1nn(C)c(C(=O)Nc2ccc3ccccc3c2)c1Cl	5.07%

SMILES	hERG current change (%, negative = inhibition) at 1uM
Cc1cc(OCC(O)CN2CCCC2)cc(C)c1Cl.Cl (centres unmarked)	-0.624%
CCn1nc(C(=O)Nc2ccc3nc(C)sc3c2)c2ccccc2c1=O	-3.48%
CCCCNC(=S)N1CCN(c2nc3ccccc3s2)CC1	10.4%
C[C@H]1CN=C(Nc2ccccc2)N1CCc1ccc(F)cc1	-4.11%
O=[N+]([O-])c1ccc(NCCCN2CCOCC2)c(Cl)c1	1.78%
COc1ccc(CCNC(=O)CNC(=O)c2ccc3c(c2)OCO3)cc1OC	16.5%
O=c1oc2c3c4c(cc2s1)CCCN4CCC3	2.25%
Cc1ccc(C(=O)NCCN2C3=NC[C@H](Cc4ccc(O)cc4)N3C[C@H]2Cc2ccc(O)cc2)cc1Br	-9.94%
O=C(CCc1nnc(C2(c3ccc(Cl)cc3)CCC2)o1)N1CCCC(O)C1 (centres unmarked)	8.81%
O=C(O)CSCC(=O)Nc1ccc(C(F)(F)F)cc1	11.9%
CC(=O)N1CCN(c2ncnc3sc(-c4ccccc4)cc23)CC1	-7.28%
CNC(=O)COC(=O)c1ccc(OCC(=O)Nc2ccccc2OC)c(OC)c1	9.43%
COc1ccc(Cn2c(=O)n(Cc3ccco3)c(=N)c3c4c(sc32)COC(C)(C)C4)cc1	-2.68%
CC(C)Nc1nc(SCC(=O)Nc2ccccc2)nc(N2CCOCC2)n1	-1.53%
Cl.OC(CNCc1ccncc1)c1ccccc1 (centres unmarked)	11.9%
CC(=O)Nc1cccc2c1C(=O)N(c1ccc(OC(C)=O)cc1)C2=O	13.3%
COc1ccc(C(NC(=O)c2ccco2)c2ccc(OC)c(OC)c2)cc1OC	2.92%
Cc1ccc(-c2nc(-c3ccccn3)no2)cc1	-7.16%
O=C(Cn1nnc2ccccc2c1=O)N[C@@H](Cc1c[nH]c2ccccc12)C(=O)O	11.6%
COc1ccc(C(=O)Oc2ccc3ccc(=O)oc3c2)cc1OC	17%
CNC(=O)c1c2c(nc3ccc(Br)cc13)CCCC2	9.1%
CN1C=CC=C/C1=C1\SC(=S)N(c2ccccc2)C1=O	10.7%
O=C(NCCc1ccccc1)c1ccc2nc(-c3ccco3)c(-c3ccco3)nc2c1	7.25%

SMILES	hERG current change (%, negative = inhibition) at 1uM
Fc1ccc(CSc2nc3ccccc3[nH]2)c2ccccc12	9.24%
COc1cc(C(=O)OCCCN2CCOCC2)ccc1O	4.79%
Cc1cccc(NC(=O)CSCc2cc(=O)n3c(C)csc3n2)c1C	5.73%
CC1CCN(C(=O)c2ccc(-n3cnnn3)cc2)CC1	-29.3%
Cc1cccc(NC(=O)c2ccc(S(=O)(=O)N3CCCCC3)cc2)c1	12.5%
Fc1ccc(-c2nnc(SCc3cccnc3)o2)cc1	11.6%
O=C(Nc1nnc(-c2cccnc2)o1)c1cccc([N+](=O)[O-])c1	13.1%
CC(=O)N1[C@H](C)C=C[C@]1(Cc1ccccc1)C(=O)O	14.3%
CC1(C)C(c2ccco2)=[N+]([O-])C2(CCCCC2=O)N1O (centres unmarked)	17%
Cc1ccc(NC(=O)COC(=O)[C@H](C)NC(N)=O)c(C)c1	11.1%
COc1ccc(C2=NN(C(=O)CSc3nc(=O)n4cc(C)ccc4n3)C(c3ccc(C)cc3)C2)cc1 (centres unmarked)	6.83%
O=C(Nc1cc(Cl)cc(Cl)c1)c1cccc(OC(F)F)c1	0.757%
COc1ccc(C(=O)Nc2c(N)nc(SCC(=O)Nc3ccc(NC(C)=O)cc3)[nH]c2=O)cc1	14.8%
Cc1cccn2c(=O)nc(SCC(=O)N3CCCCC3)nc12	-3.48%
Cn1c(=O)cc(OCC(=O)NCc2cccnc2)c2ccccc21	7.35%
Cc1ccc(NC(=O)CSc2nc(=O)n(CCCN3CCOCC3)c3c2CCCC3)cc1F	0.67%
NNC(=O)c1cc(-c2cccs2)nc2ccccc12	8.74%
O=C(c1ccccc1)N1CCN(S(=O)(=O)N2CCOCC2)CC1	12.1%
Cc1cc(C)nc(SCc2ccc3nonc3c2)n1	-0.492%
CCOc1ccc(/C=N/OCC(=O)NCc2ccc3c(c2)OCO3)cc1OC	24.3%
O=C(Nc1cccc2c1CCCC2)C1CCN(c2nnnn2-c2ccccc2)CC1	0.576%
CCSc1oc(-c2ccco2)nc1S(=O)(=O)c1ccc(C)cc1	12.8%
Cc1c(Br)c(O)c(Br)c2sc(=O)oc12	15.4%

SMILES	hERG current change (%, negative = inhibition) at 1uM
O=C(Nc1cccc(C(F)(F)F)c1)c1cnc2n(c1=O)CCS2	5.1%
COCCCN1C(=O)N(c2ccc(F)cc2)C(=O)C1CC(=O)Nc1ccccc1 (centres unmarked)	10.2%
CCc1cccc(CC)c1NC(=O)COC(=O)C1(c2ccc(Cl)cc2)CCCC1	14.9%
CCCC(=O)c1c(NC(C)C)cc(C)oc1=O	5.86%
CC(C)(C)NCCOCCOc1ccc(Cl)cc1C(C)(C)C.O=C(O)C(=O)O	10.2%
CCOCCCNc1ccc(N2C(=O)CCCC2=O)cc1[N+](=O)[O-]	5.65%
COc1ccc(C)cc1S(=O)(=O)Nc1ccc(F)c(Cl)c1	5.7%
O=c1oc(-c2ccccc2)nc2c1C1(CCCCC1)Cc1ccccc1-2	8.31%
CCOc1cc(C2C(C(=O)N3CCCCC3)=C(C)NC3=C2C(=O)CC(C)(C)C3)ccc1O (centres unmarked)	1.34%
COc1cccc(N2CCN(c3nc(C)c(C)c(=O)[nH]3)CC2)c1	12.3%
CCc1nnc(NC(=O)CSc2ccc(-c3ccc(-n4cccn4)cc3)nn2)s1	10.4%
Cc1cc(C)c2nc(SCCC#N)nc(C)c2c1	-1.98%
O=C(c1ccccc1)c1nc[nH]c1C(=O)Nc1ccccn1	15.7%
S=C(NCCCN1CCOCC1)Nc1ccc(Cl)c(Cl)c1	-2.66%
Cc1ccc(C(=O)CSc2ccccn2)cc1	8.35%
CS(=O)(=O)N(CCc1ccccc1)CC(=O)NCc1ccccc1Cl	6%
Cc1oc(-c2cccc(Cl)c2)nc1CN(C)C1CCOC1 (centres unmarked)	7.9%
O=C(NCc1cc(C(F)(F)F)cc(C(F)(F)F)c1)C1CC(c2ccccc2C(F)(F)F)=NO1 (centres unmarked)	4.14%
NC(N)=Nc1nc2ccc(Cl)cc2c(=O)[nH]1	11.7%
COc1cccc(-c2cc(N3C(=O)Nc4ccccc4N3O)n[nH]2)c1	9.7%
